# Results as given in PubChem BioAssay (NCATS).
# The shares of active, inactive and inconclusive entries below differ from those in the screen. A potency beside an inconclusive call is a rough fit, not a confirmed value. Calls of active or inactive are those of the source. Calls follow the shape of the dose curve; as a rule, active = well fitted cell-killing curve with a large enough effect; inconclusive = small, poorly fitted or top-dose-only effect, or effect the other way; inactive = flat fitted curve, though single readings scatter.
# Tested on: CAOV3
# Test: Primary qHTS to identify gynecologic anti-cancer compounds using libraries of approved drugs and bioactive compounds (AID 1345084); also: nearly all actives have a fitted effect of over 55% in size
# Settings: Gynecologic cancer cell panel viability, ATPlite luminescence, 48 h; series mostly up to 57.5 µM; activity change, negative = cytotoxicity: at the top concentration
# Procedure, shortened: (§1)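 Luminescence from the ATPlite ATP-monitoring reagent indicates viable cell number; lower signal means cytotoxicity. Cells received compound 16 h after seeding and were exposed for 48 h across five concentrations.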
# % is scaled to controls: 0 for no effect and ±100 for the full control effect; potency is read from the fitted curve at half-maximal effect; tags tell the direction and shape of the fitted curve.
SMILES,Potency,"activity change, negative = cytotoxicity"
CN(C)C(=O)C(CCN1CCC(O)(c2ccc(Cl)cc2)CC1)(c1ccccc1)c1ccccc1,"inconclusive: 25.1 µM [cytotoxic, single point]",–
COc1cc(N2CCC(N3CCN(C)CC3)CC2)ccc1Nc1ncnc(Nc2ccccc2S(=O)(=O)C(C)C)n1,"inconclusive: 10 µM [cytotoxic, partial curve, poor fit]",–
CN(C[C@@H]1COCCO1)S(=O)(=O)Nc1ccc2ccc3ncc(-c4cnn(C)c4)cc3c(=O)c2c1,"inconclusive: 28.2 µM [cytotoxic, single point]",–
N=C(N=C(N)N)N1CCOCC1,–,inactive: 17.9%
CCOc1ccc(Nc2nc(-c3c(C)nc4ccccn34)cs2)cc1,"inconclusive: 0.794 µM [cytotoxic, single point]",–
Cc1cc(C2CCCCC2)n(O)c(=O)c1,active: 15.8 µM,–
CC(C)n1nc(-c2ccc3oc(N)nc3c2)c2c(N)ncnc21,"inconclusive: 17.8 µM [cytotoxic, partial curve, poor fit]",–
COc1cc(N2CCC(N3CCN(C)CC3)CC2)ccc1Nc1ncc(Cl)c(Nc2ccccc2S(=O)(=O)C(C)C)n1,"inconclusive: 2.51 µM [cytotoxic, full curve, poor fit]",–

# Tested on: CASKI
# Test: as above
# Settings: Gynecologic cancer cell panel viability, ATPlite luminescence, 48 h; series mostly up to 57.5 µM; activity change, negative = cytotoxicity: at the top concentration
# Procedure, shortened: as §1
SMILES,Potency,"activity change, negative = cytotoxicity"
S=c1nc[nH]c2nc[nH]c12,active: 2.51 µM,–
CN(C)C(=O)C(CCN1CCC(O)(c2ccc(Cl)cc2)CC1)(c1ccccc1)c1ccccc1,"inconclusive: 22.4 µM [cytotoxic, single point]",–
COc1cc(N2CCC(N3CCN(C)CC3)CC2)ccc1Nc1ncnc(Nc2ccccc2S(=O)(=O)C(C)C)n1,"inconclusive: 20 µM [cytotoxic, partial curve]",–
CCCOc1ccc2nc(NC(=O)OC)[nH]c2c1,"inconclusive: 0.316 µM [cytotoxic, full curve, poor fit]",–
CS(=O)(=O)N1CCN(Cc2cc3nc(-c4cccc5[nH]ncc45)nc(N4CCOCC4)c3s2)CC1,"inconclusive: 2.24 µM [cytotoxic, partial curve, poor fit]",–
CCOc1ccc(Nc2nc(-c3c(C)nc4ccccn34)cs2)cc1,"inconclusive: 0.178 µM [cytotoxic, full curve, poor fit]",–
Cc1cccc2c1CC[C@H](CN1CCC(c3c(Cl)cccc3Cl)CC1)C[C@@H]2O,–,inactive: -17.3%
Cc1cc(C(=O)N2CCN(c3cccc(Cl)c3)CC2)n(-c2ccccc2)n1,"inconclusive: 6.31 µM [cytotoxic, full curve]",–
OCCCNc1cc(-c2ccnc(Nc3cccc(Cl)c3)n2)ccn1,active: 0.398 µM,–
COc1cc([C@@H]2c3cc4c(cc3[C@H](O)[C@H]3COC(=O)[C@H]23)OCO4)cc(OC)c1OC,"inconclusive: 0.1 µM [cytotoxic, full curve, poor fit]",–
CC(C)n1nc(-c2ccc3oc(N)nc3c2)c2c(N)ncnc21,active: 2.24 µM,–
COc1cc(N2CCC(N3CCN(C)CC3)CC2)ccc1Nc1ncc(Cl)c(Nc2ccccc2S(=O)(=O)C(C)C)n1,active: 7.94 µM,–
